The list shows a part of the results. At the low end of the ranking the order means little. The protein was read in a cell extract, so binding may be indirect.
target: T1, HNF4alpha8 (COS-7 nuclear extract) (UniProt P41235-5); assay: protein-binding microarray; details: COS-7 nuclear extract on double-stranded Agilent 4x180k PBM; binding buffer, salt, pH and temperature not given; high values mean tight binding; double strand, one strand shown; sequences stand for … in …GCCTAGGGAGATTAGAGTATCGGTCGA
T1 sequence: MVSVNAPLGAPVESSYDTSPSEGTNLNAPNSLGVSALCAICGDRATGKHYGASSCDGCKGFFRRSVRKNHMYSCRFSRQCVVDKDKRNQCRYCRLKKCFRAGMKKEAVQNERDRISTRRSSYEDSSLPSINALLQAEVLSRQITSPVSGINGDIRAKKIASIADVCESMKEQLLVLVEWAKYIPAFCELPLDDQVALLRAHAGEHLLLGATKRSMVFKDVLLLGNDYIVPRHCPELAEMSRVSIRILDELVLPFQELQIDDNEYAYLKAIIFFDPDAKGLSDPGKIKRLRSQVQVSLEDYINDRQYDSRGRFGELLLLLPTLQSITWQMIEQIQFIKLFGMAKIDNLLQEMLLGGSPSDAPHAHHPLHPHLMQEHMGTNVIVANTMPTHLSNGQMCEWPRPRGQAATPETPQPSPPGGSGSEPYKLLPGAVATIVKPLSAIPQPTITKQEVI

Sequence	binding signal (log2 normalized intensity)
AGGTCCCCAAGAGCCTTATCACATTACAGG	-1.2
GTCTTTAGAGTAACCATTCTTTCTGAGAAA	-0.925
CCTCAAAGGTTAGGGGGATTCTGGCTAAAC	-1.19
GAGAAACAGGGGCTTAAACCTTTAATGATG	-1.17
CAAACATACTTAGGATTTTTGTGCCTCTTT	0.873
AATCAGTCTGATTGGTTGCAGAAGGCAGCC	-0.0313
TATCATTAGATTCCATGCAGCAGCATCCAG	-1.3
GATAATATTTTTACCAGGTCAGAGGACTTC	2.51
CTCTTTTGGATTTTTCCATATCTGTGTGCC	0.756
CAAAGCAGGAGATGTGTGAAGGACACAGAA	-1.3
TGCTTTCAGGTGTGAACCCAGGCAAAGTCC	4.24
TGGCACTTTGGACTTGAGAAGACATAGTTT	2.88
AAGGGGTCAGACCAGACAGCACCTCTCTGA	-1.23
AAAGAAGAAGATGATATGGTCAGTGTTGAT	1.32
ATCTCTAAGCTACTGAAAATGACCTTTGTT	6.73
TATCAGAAGAATCTGTATCAGCCTGTGACA	-1.34
CTTACAGTCTTGGATCGGGATGATCAATGT	1.43
GGCAGGAGTCAACAGGCAGAAGAATGGATG	-1.24
CAAGAACAAAAACTGTTTCTATGTGACCTT	4.5
GCTGCCGCAGATCCCCGCTCCCCTCCCCCA	6.43
TGGCAGAATCAAGGCAAGCCTTATCACTGT	-1.27
GAGGGGGTTAAAGGTTATTTGCTCACCAGT	4.45
TCTCAGCCTGGCTAAAACCCTGGCCACTCC	-1.3
GAAGCGAGGCCTCATTGGCCAGTATCCGCC	-1.23

Sequence	binding signal (log2 normalized intensity)
CTCCACTATTGTCCTATGACCCTGCCAAAT	2.99
GCTGAGCAGCAATCAGCTCCTCAACCAAGG	-1.2
CTTCTCTGTTAACCCTTTGCAGCCCCTGTC	3.36
TCAGCACACCCCACGGAGCACATTCCATGC	1.66
TATTCAGGAAGTCGCTTGCCAGTATGCCAC	-1.27
GATGTAGCTGCAAAGATAAGGATGCCTTTT	1.43
ATCTAATGCCCCAAATGACGCTTTAAGTAG	1.19
GGGACTTCGGTCTTTTTTCTGAAGACCTTC	1.97
CGCATTTCCAAAAGAAGAATGTGGCCATTT	0.762
AAGTTCTTTTGTGTGTTTACATAACCTGCC	1.53
GAAGACTTGGGGGAGGAGGGCAACCTTTGA	5.29
AATAACCACAAGGGGGGAGCACCTCCCAAC	-1.33
TTTCAAAGGTCAACATACAGAGGCTCTGAG	2.64
TGTCAGCCCAAGATAACCTCCCCTCTGACC	3.67
GGGTGGACTTTGGCTTTTCCAAAGGATCCC	4.84
CAAGAAAGACCCAAGGCGTATGAAGCTTTG	-1.28
ATGTTAATGATTACTAGAGATGTCCTGAAA	-0.181
AATAGATCTGGTCTTACTGATGGGCAAAGT	2.24
ATAGGCGAGGACGCAGTCCCGCGTGGCCTT	-1.23
TTAAAAGCCCAACACGGGCGAAAAAGACGC	-1.27
GGGCCCCTTCCTGGGGGAGTTTCCTGCCTG	-1.34
AACATTCTATTCTATCTGTATTCTGAAGCC	0.295
ATGCAAAGCCCTGGCTGACCTTTAGCCTGG	7.69
AATGAGCCTCCTGAAGATCCCCTGTTGTGC	1.65

Sequence	binding signal (log2 normalized intensity)
TGCAGGGATGGACTTTAATCTCCAAGTAAC	5.47
ACGGGTAAATCCGGTTTGGGGACTTCTCCC	-1.01
AGGGAGGGGAGAGGGGGTTAAAGGTTATTT	5.28
CTGGGGTTAGCCAAACAAATGGAGAAGGTC	0.534
TTGGCCTGTTTGCTGAAGGCCATGCATGGT	1.14
CGGGGGCAAGGGTCAGAGTAAAGCTCCAGT	4.65
AATGAAAGGTTAACCTGCTGGTTTACAACA	-1.11
ATAGGAGGATTTTATTCAGGTGGCCACTGG	0.314
ACCTAGAGGCCTTTCTCTCTGCACGAAAAA	-1.2
GACCCGTGAATCCTTAAGATTCCTGCTCTA	-1.3
TTTCAACATTTAACTTAACCACTCAATCAG	-0.86
GGAGAGATAAGAAAAACTGAGCTTTAGATA	-1.41
CACAGAAGCATGGATGAATGAGTTTCCAGA	-1.27
GCTTGTCAGACAAGTTGCAGGGATGGACTT	3.6
TACACAAGCAATAGGGTTCGGTGCAATAAC	-0.528
GGAAGTACTGCCCTTAACTCCCGGCACTCT	-0.618
GCTATTTGCATCAGCAGAGGACAGAAGAAG	-1.4
GTTGTTCCTTTTCTTTCACATACAAAATTT	1
TGGCCTTAGGGTGAGGCATCTGGACCATTG	2.07
CCCTCCCCCACCCGCGGTCCGTCCCTCCTG	5.4
CCTGGACTCTAGAGCCAGACTAGTATTGAG	0.874
CAGGATGGGCTCCTGCCTTGGAGAAGTGAA	-1.29
AATTTGATCCAGTGTGCAAATGTGTCTTTT	1.57
CCTCAGGCCTTTGGACCCAGACTGAATCAC	3.33

Sequence	binding signal (log2 normalized intensity)
AGAGAAACCTGGCTGCGAGTCCCTGCTGTG	-1.36
AAATAGAGAGCAGACAGGGGCTCAGCTGTC	-1.33
TCAAAGGTCAGAAAAAGCTGACGCCCCACC	2.88
TCCAGCCCCAGGCTGAGCGTGAACACCGGC	-1.21
TCCAAAGTATTTTCTGTCTAGGTGCCAGAA	0.836
TCAGAAAGCAGAAGTTCTAGGAGCCTGGAC	-1.25
TAAATACCATTAGGGGGCAATTTCCCTGGT	1.31
GACTTAGCACAGGAAAGGGCTTTGGGGACT	-1.05
TAAGCATAACTGGTTCAACCTGTTTCCACT	-1.29
GCAGCGCGGGGCTCAAAGGCGGCCCGGGTG	-1.18
CTGAAGTCCCCTGTGCTTTGGCCAAATAAT	1.7
TGAGGCCGGAGGGCAGGCGGGCCGCCTTTC	-1.29
TTCTCCAGTCTATCAGACCAGCATTCTTTC	-1.31
TCTGTAAAAGCCAGCATTTCTGTGGACTGC	1.74
GTGTGGTGATGGCAGGAGTCAACAGGCAGA	-1.33
CTGATAGAAAACGTTCACGTCTCAAGCTTC	-1.3
TCTCTTGTGCTCATGACAAAGAAATGTAAC	0.609
AGAGGAGCATGGACTTCTGAGCTTGGCAAA	-1.25
ATGGGTCCAAAGTTCTGAATGAGCAGACTG	3.84
GCCGAGCCTGCAGGTGAATGGAAACAAGAG	-1.3
CCAATAGGTTTGATTTCAGCATGTTTAAAT	0.477

— paper PMC10726135
